Assay results from the BET-seq Pho4 binding data (Le et al. 2018).
The other results are listed elsewhere or left out. The energies were worked out here from pooled read counts, against the library average; single values are noisy.

biological target: T1, Pho4 (S. cerevisiae) (UniProt P07270); test: relative binding free energy (BET-seq); higher = weaker binding; conditions: reference: library average
T1 sequence: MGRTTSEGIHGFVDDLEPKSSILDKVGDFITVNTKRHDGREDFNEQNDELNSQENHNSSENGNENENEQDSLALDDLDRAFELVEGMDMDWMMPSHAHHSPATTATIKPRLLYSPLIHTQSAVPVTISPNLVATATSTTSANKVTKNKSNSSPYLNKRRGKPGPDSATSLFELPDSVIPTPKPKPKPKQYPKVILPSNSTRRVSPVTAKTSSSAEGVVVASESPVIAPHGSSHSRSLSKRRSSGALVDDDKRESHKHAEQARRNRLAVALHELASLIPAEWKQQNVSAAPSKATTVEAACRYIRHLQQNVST

Sequence	relative binding free energy [kcal/mol]
AAGGACACGTGTGGAT	0.02
ATTTGCACGTGGGCTC	-0.1
ACGGTCACGTGAGTAG	0.17
GATATCACGTGGTAAT	0.15
TAGGCCACGTGTGATT	0
TCATGCACGTGTGGGT	0.02
GGGACCACGTGGACGG	0.13
TTAGACACGTGAAAGT	0.32
GGGAGCACGTGCAGGT	-0.17
AGGTTCACGTGTGGAT	0.33
GTATTCACGTGGACTG	0.27
TGACTCACGTGCGGTG	0.12
ATAATCACGTGTGCGT	0.22
TCGAACACGTGAGGTG	0.5
GTGTCCACGTGGAGGT	-0.08
CATGTCACGTGAGTAG	0.23
TAATGCACGTGTTTGA	-0.03
TTTTGCACGTGTGCGG	0.1
AAGGACACGTGAGAGG	0.24
GGTTTCACGTGCTATT	0.28
AGATGCACGTGATTTG	-0.13
TAAGTCACGTGATATA	0.18
TTCGTCACGTGATTAG	0.22
TCGTACACGTGTAGGT	0.05
TTTTTCACGTGATAAG	0.26
TGCTTCACGTGTCGGG	0.17

Sequence	relative binding free energy [kcal/mol]
GGAAGCACGTGTTGTT	-0.11
GTGAGCACGTGTCGGT	-0.01
CAAGACACGTGGAGGG	0.1
AGGTGCACGTGGGTCT	-0.2
TATGACACGTGAATTG	0.2
AGCTGCACGTGTGGTG	-0.07
GTTTTCACGTGCATAT	0.42
GTATGCACGTGTAAGT	0.13
TTGTTCACGTGGGTTG	0.21
GGCGGCACGTGTGAGA	0.07
TGAATCACGTGTTTAT	0.25
CGTTTCACGTGGATCG	0.26
TGTGCCACGTGACGGG	-0.17
ACGGGCACGTGTGGCG	-0.14
CTTATCACGTGTGTTA	0.03
GTATGCACGTGTTCGG	0
GTTGTCACGTGCTGTT	0.06
GAGAGCACGTGATTGT	0.03
CTAGCCACGTGGTGGT	-0.11
GGCTGCACGTGGGGGC	-0.09
AGATTCACGTGTCAGT	0.33
AGGAACACGTGTAGTT	0.23
CAGGTCACGTGAGGTA	0.34
GGTAGCACGTGAGGAA	0.16
AAATGCACGTGGGAGT	-0.08
GGGGTCACGTGCGTCA	0.06

Sequence	relative binding free energy [kcal/mol]
ATCGGCACGTGTATGT	0.09
TATACCACGTGTGTAT	-0.02
TTTATCACGTGCGTTG	0.02
CGTGCCACGTGGGGTT	-0.24
TTTTGCACGTGATGTC	0.16
AAATGCACGTGGGGTC	-0.19
CGGGGCACGTGTTGAG	-0.1
TATTGCACGTGTCAGG	-0.13
AAGGCCACGTGTAGGT	-0.1
TTTTGCACGTGCGGAT	-0.05
AGTCTCACGTGGAGTT	0.15
TTTATCACGTGTTGCA	0.12
ATGAACACGTGTATGT	0.09
ATTGGCACGTGTATAG	-0.04
ATTGGCACGTGAACGT	0.08
ACTGGCACGTGTCGTT	-0.04
TTTTACACGTGTCTTG	0.1
CGGGCCACGTGTCAGG	0.03
TAATGCACGTGGTGCA	-0.19
TTAAGCACGTGCTGGC	-0.08
GTGGTCACGTGATGTT	0.3
TGTGCCACGTGTATGC	-0.11
AAGGACACGTGGTCGG	-0.03
GCGATCACGTGAGGTG	0.39
TCGTTCACGTGCGGTA	0.2
TTTGACACGTGTTAAG	0.14

Sequence	relative binding free energy [kcal/mol]
TATAGCACGTGAGCTG	0.25
TTGGGCACGTGCTGGA	-0.29
GGGACCACGTGTCGGG	0.06
CTGCGCACGTGGTTGG	-0.34
GGGGTCACGTGGGCCC	-0.01
CTGTTCACGTGATTTG	0.47
ATATGCACGTGATATG	-0.1
TTTTGCACGTGGGAGT	-0.07
TGGCACACGTGAATGT	0.32
TGGAGCACGTGAAGGG	0.26
GTAGGCACGTGTTTAT	0.03
GTTTACACGTGTAGAG	0.16
CGTCGCACGTGAGTGT	0.1
TGTATCACGTGTGCTA	0.22
TGCGTCACGTGGGTCG	-0.13
TAAAGCACGTGTCTGT	-0.1
TCTTGCACGTGGGTTG	-0.08
ATGTACACGTGTATCG	0.05
TTAGCCACGTGGGCGT	-0.23
AGTGGCACGTGTATCT	-0.07
GGAAGCACGTGTAATG	0.03
TGTTCCACGTGTGGGT	0.2
AACGGCACGTGGGATG	-0.13
TCGGCCACGTGTGATG	0.17
TTAGTCACGTGTTTTG	0.07
TATTGCACGTGTCTTA	-0.04

Sequence	relative binding free energy [kcal/mol]
TTTCACACGTGTGGTA	0.19
TAATACACGTGATAGG	0.18
AACGACACGTGAGGGT	0.24
TACTGCACGTGCTGTG	-0.07
ATTTGCACGTGATGCT	0.01
GTGGGCACGTGTGTTC	0.01
GGCATCACGTGGTTTA	0.11
TTGGTCACGTGTAAAG	0.19
GAGAACACGTGGGAGT	0.03
TATGGCACGTGCGAGC	-0.02
TGTCGCACGTGGCGTG	-0.09
TTGTACACGTGAGAGA	0.25
TTTAGCACGTGATACT	0.02
TTGGGCACGTGGAACA	-0.06
TGTGACACGTGTATCT	-0.09
GGGAGCACGTGTGCGC	-0.08
TTACACACGTGATGTG	0.06
GGAGGCACGTGCGTTA	-0.19
GGTTGCACGTGAGGAT	0.26
AAGATCACGTGGGGGA	-0.04
CTGCGCACGTGAGGGT	-0.01
TCTTTCACGTGTGCGG	0.38
GAGTGCACGTGTGTCT	0.16
GGTAGCACGTGAGTTA	0.21
TTCGGCACGTGTTTTA	0.04
GTTCGCACGTGGGAGT	0

Sequence	relative binding free energy [kcal/mol]
TATGTCACGTGCGGGC	0.2
ATATACACGTGTATAG	0.1
TTTAACACGTGAGTGA	0.15
TCAGACACGTGTGTTG	0.09
GTGTACACGTGAGTCG	0.16
ATAAGCACGTGTTGGT	-0.05
CGGTGCACGTGGTTGG	0
GGAATCACGTGTATGG	0.04
TTTCCCACGTGTTTGT	-0.13
CGGGACACGTGGGTGG	-0.11
TGTTACACGTGTAGCT	0.05
CAAGTCACGTGTATTG	0
GTTAACACGTGAGTAG	0.21
TTGGACACGTGCTTGG	0
TGGGCCACGTGTGGGG	0.01
ATGTTCACGTGTTATC	0.35
TCATTCACGTGGCGTG	0.16
TGAATCACGTGCTTTG	0.1
TAATGCACGTGTGAAG	0.04
GGGGACACGTGTTTTT	0.09
TGATTCACGTGCGTCT	0.3
ATTATCACGTGTGGGC	0.05
CTGTTCACGTGGGCAG	0.08
GGGAACACGTGTCAGG	0.1
TTGATCACGTGTGGTG	0.21
GCAGTCACGTGGTTGT	0.15

Sequence	relative binding free energy [kcal/mol]
CGTAGCACGTGGTGGG	-0.21
TAGGTCACGTGGTAGG	0.03
GTGTGCACGTGAAGTG	0.27
TGGAGCACGTGTGGGG	-0.08
CTCTGCACGTGTGGTG	-0.08
GGTACCACGTGTGGGT	0.05
ACGGTCACGTGTAGGA	0.17
TATTACACGTGGGGGC	0.02
CTTTGCACGTGGGTAT	-0.14
AAAGTCACGTGTTGGT	0.06
AATGTCACGTGTGGTA	0.19
ATCTGCACGTGGGGGT	-0.22
ATCGTCACGTGTCAGG	0.22
GGTCTCACGTGTCTTG	0.29
TGAAGCACGTGTATGA	-0.01
GTAGTCACGTGGCGTG	0.01
GATGGCACGTGTTGGG	0.08
GTTGCCACGTGGGGAA	-0.22
GTGCGCACGTGTGGTT	0.09
GTGAGCACGTGGTGAC	-0.06
TAGCGCACGTGATGTT	-0.01
GGAGTCACGTGAGTCG	0.26
TCTTTCACGTGAGAAT	0.43
TAGTGCACGTGTCGGT	-0.03
TAATTCACGTGTAATG	0.32
TATATCACGTGCATAT	0.14

Sequence	relative binding free energy [kcal/mol]
AGGCGCACGTGAAAGG	0.19
ATGTGCACGTGGTCCG	-0.14
GAGAGCACGTGGGAAG	-0.06
GGTTTCACGTGTGGGT	0.32
TGTTGCACGTGGCTCG	0
CAATTCACGTGTGTGT	0.15
GTTAGCACGTGTAGGG	0.07
GTGCGCACGTGGGGAA	-0.15
TGGTTCACGTGGGGCT	0.21
GGATACACGTGGGAAG	0.08
TAGCTCACGTGCGTGG	0.1
GATGACACGTGTGGAG	0.12
GGGTGCACGTGTGCGT	-0.04
CGCAGCACGTGTGTGG	-0.25
AATGGCACGTGTGAAA	-0.03
ACGCGCACGTGGGGGG	-0.26
GAGTGCACGTGTTACG	0.09
AGTTACACGTGGTACT	-0.02
GGGGGCACGTGTGAGC	-0.04
TGCGTCACGTGGTGAT	0.07
TTCGACACGTGTGTAT	0.15
GGGCACACGTGTTATT	0.13
GAATTCACGTGTATGT	0.23
GATGTCACGTGTGAAT	0.14
GTGGACACGTGGTGAA	0.02
CTGTACACGTGGGCGT	-0.01

Sequence	relative binding free energy [kcal/mol]
AAGATCACGTGGTGTA	0.08
TAGATCACGTGTGTTT	0.22
TCGGCCACGTGTTGGT	-0.05
TGGATCACGTGTAGTT	0.05
GCGGGCACGTGGGCGC	-0.24
GTATACACGTGTGAGA	0.17
AATTTCACGTGGAAGT	0.32
TGGAGCACGTGGGGTT	-0.07
TGGGACACGTGGCGGC	0.01
TGGATCACGTGATGGT	0.39
AAGGCCACGTGTTGGG	-0.06
CTAATCACGTGGGTAT	-0.01
GAGACCACGTGGGGGG	-0.03
GATGTCACGTGTCGTT	0.26
ACGTTCACGTGTTGGA	0.33
GATGACACGTGTGGGC	0.08
GGTGTCACGTGCGAGC	0.14
TATTGCACGTGAGAGT	0.29
GAAGTCACGTGAAGGT	0.4
CTTTCCACGTGGGTGT	-0.16
GGTGGCACGTGATTGG	0.17
AGTATCACGTGGATTG	0.25
